Results reported in the supplement of paper PMC5655136.
Values come from read counts of a selection and are noisy.

Test system: NB7
Assay: fold depletion of shRNA, plasmid library share / infected cells without Dox share (9 days) (ratio); higher = more depleted after infection (more toxic, leaky expression from a Tet-inducible vector; NB7 is a neuroblastoma line without caspase-8)
[1] = shRNA pool: CD95L ORF + CD95L 3'UTR + Venus libraries
[2] = shRNA pool: CD95 ORF + CD95 3'UTR + Venus libraries
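Note: shRNA barcodes quantified by deep sequencing of PCR amplicons from cellular DNA, counts expressed as percent of each subpool, ratio averaged over two biological duplicates.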

Sequence	fold depletion of shRNA [1]	fold depletion of shRNA [2]
CCACAAGTTCAGCGTGTCCGG	1	1.61
CCACAGCACAGGCCTGTGTCT	0.351	–
CCACAGGCTAACCCCACTCTA	–	0.763
CCACAGGGTTCAAAATGTCTG	0.673	–
CCACATGAAGCAGCACGACTT	1.14	1.6
CCACCACCACCGCCACCGCCA	2.44	–
CCACCACTACCACCTCCGCCG	2.27	–
CCACCCCAGTCCACCCCCTGA	31.6	–
CCACCCCCGAAAATGTTCAAT	–	3.73
CCACCCCCTGAAAAAAAGGAG	1.41	–
CCACCCCTGAAGAAGAGAGGG	2.07	–
CCACCCTCGTGACCACCCTGG	0.969	0.967
CCACCCTGGGCTACGGCCTGC	0.861	0.621
CCACCGCCACCACTACCACCT	2.17	–
CCACCGCCACCGCCACCACTA	0.194	–
CCACCGGCAAGCTGCCCGTGC	0.722	1.02
CCACCTAAAGAACTTCCATTT	–	1.9
CCACCTACGGCAAGCTGACCC	0.578	1.13
CCACTAATTGTTTGGGTGAAG	–	1.23
CCACTACCACCTCCGCCGCCG	6.39	–
CCACTACCAGCAGAACACCCC	1.8	1.52
CCACTACCTGAGCTACCAGTC	2.32	2.88
CCACTATTGCTGGAGTCATGA	–	4.71

Sequence	fold depletion of shRNA [1]	fold depletion of shRNA [2]
CCACTCTATGAATCAATAGAA	–	0.99
CCACTGGCAGCATCTTCACTT	1.24	–
CCACTTTGCCTCTAAATTACC	–	2.6
CCAGAAGGCCTGGTCAAAGGA	5.58	–
CCAGAATACCAAGTGCAGATG	–	3.02
CCAGACAAATGGAGGAATATG	2.38	–
CCAGACTGCGTGCCCTGCCAA	–	0.785
CCAGATCTAACTTGGGGTGGC	–	0.802
CCAGATCTACTGGGTGGACAG	13.2	–
CCAGCAACACCAAGTGCAAAG	–	0.637
CCAGCAGAACACCCCCATCGG	1.74	1.9
CCAGCCAGATGCACACAGCAT	4.31	–
CCAGCTCTCCCTGGGCCCCTC	4.27	–
CCAGGAGCGCACCATCTTCTT	1.97	1.66
CCAGGATCTGGTGATGATGGA	1.3	–
CCAGGCACAGTTCTTCCCTGT	2.43	–
CCAGGTGAAAGGAAAGCTAGG	–	0.897
CCAGGTGTTCTACACTCATCT	3.22	–
CCAGTCCGCCCTGAGCAAAGA	2.6	2.39
CCAGTGCAATTGTAGGGGTGT	1.59	–
CCAGTGCTGATCATTTATATG	1.02	–
CCATAAGCCCTGTCCTCCAGG	–	1.36
CCATATCCCCAGATCTACTGG	2.34	–

Sequence	fold depletion of shRNA [1]	fold depletion of shRNA [2]
CCATATTTCTAAACTTTGTTT	–	1.7
CCATCCTGGTCGAGCTGGACG	1.21	2.15
CCATCGGCGACGGCCCCGTGC	0.927	1.07
CCATCTTCTTCAAGGACGACG	1.26	2.67
CCATGCCCGAAGGCTACGTCC	1.72	1.15
CCATGCCTCTGGAATGGGAAG	2.25	–
CCATGTAAAACCTGCTACAAA	–	0.892
CCATGTGAAGAGGGAGAAGCA	2.34	–
CCATGTTTGCAATCAAAGATG	–	0.444
CCATTATGATTCTTTGTTACA	1.54	–
CCATTTAACAGGCAAGTCCAA	0.935	–
CCATTTATGGAGGATTTTTTT	–	0.798
CCATTTTTCTTCCAAATGCAG	–	0.556
CCCAAACATGGAAATATCACC	–	2.11
CCCAAATAGGAGTGTATGCAG	–	1.06
CCCAACGAGAAGCGCGATCAC	2.9	1.32
CCCAAGTTTCTAAGATTTAAG	–	1.22
CCCACCCCCGAAAATGTTCAA	–	4.99
CCCACCCTCGTGACCACCCTG	1.16	1.6
CCCACTCTATGAATCAATAGA	–	1.18
CCCACTGGCAGCATCTTCACT	1.13	–
CCCAGAATACCAAGTGCAGAT	–	1.84
CCCAGATCTACTGGGTGGACA	1.61	–

Sequence	fold depletion of shRNA [1]	fold depletion of shRNA [2]
CCCAGGATCTGGTGATGATGG	1.73	–
CCCAGTCCACCCCCTGAAAAA	1.42	–
CCCATATCCCCAGATCTACTG	1.13	–
CCCATCCTGGTCGAGCTGGAC	–	1.95
CCCATCGGCGACGGCCCCGTG	0.501	0.588
CCCATGTAAAACCTGCTACAA	–	1.19
CCCATGTTTGCAATCAAAGAT	–	2.81
CCCATTTAACAGGCAAGTCCA	1.07	–
CCCATTTTTCTTCCAAATGCA	–	0.785
CCCCAAACATGGAAATATCAC	–	3.91
CCCCAACGAGAAGCGCGATCA	1.14	1.11
CCCCAAGTTTCTAAGATTTAA	–	0.62
CCCCACCCCCGAAAATGTTCA	–	3.18
CCCCACTCTATGAATCAATAG	–	1.03
CCCCACTGGCAGCATCTTCAC	1.75	–
CCCCAGATCTACTGGGTGGAC	5.63	–
CCCCAGGATCTGGTGATGATG	0.443	–
CCCCAGTCCACCCCCTGAAAA	3.26	–
CCCCATCGGCGACGGCCCCGT	1.05	0.937
CCCCCAAACATGGAAATATCA	–	1.32
CCCCCAAGTTTCTAAGATTTA	–	3.66
CCCCCACCCCCGAAAATGTTC	–	2.93
CCCCCATCGGCGACGGCCCCG	0.571	1.89

Sequence	fold depletion of shRNA [1]	fold depletion of shRNA [2]
CCCCCGAAAATGTTCAATAAT	–	2.31
CCCCCTGAAAAAAAGGAGCTG	3.05	–
CCCCGAAAATGTTCAATAATG	–	1.74
CCCCGACCACATGAAGCAGCA	2.5	3.02
CCCCGTGCTGCTGCCCGACAA	1.06	1.5
CCCCTCCAGGCACAGTTCTTC	1.46	–
CCCCTGAAAAAAAGGAGCTGA	0.861	–
CCCCTGAAGAAGAGAGGGAAC	2.68	–
CCCCTTGTGTTTGGAATTATA	–	1.85
CCCGAAAATGTTCAATAATGT	–	0.659
CCCGAAGGCTACGTCCAGGAG	0.684	0.725
CCCGACAACCACTACCTGAGC	1.6	1.6
CCCGACCACATGAAGCAGCAC	0.957	1.46
CCCGCAGCAGCTACCTGGGGG	1.01	–
CCCGCGCCGAGGTGAAGTTCG	0.719	0.98
CCCGCTACCCCGACCACATGA	1.06	1
CCCGGACCCAGAATACCAAGT	–	0.709
CCCGTGCCCTGGCCCACCCTC	1.32	1.06
CCCGTGCTGCTGCCCGACAAC	0.877	0.871
CCCTCCAGGCACAGTTCTTCC	0.546	–
CCCTCCTACCTCTGGTTCTTA	–	1.18
CCCTCGTGACCACCCTGGGCT	3.03	2.36
CCCTGAAAAAAAGGAGCTGAG	1.3	–

Sequence	fold depletion of shRNA [1]	fold depletion of shRNA [2]
CCCTGAAGAAGAGAGGGAACC	0.861	–
CCCTGAAGCTGATCTGCACCA	0.879	1.02
CCCTGAGCAAAGACCCCAACG	1.84	1.3
CCCTGAGCCACAAGGTCTACA	2.07	–
CCCTGCCAAGAAGGGAAGGAG	–	1.55
CCCTGGCCCACCCTCGTGACC	0.938	2.18
CCCTGGGCCCCTCCAGGCACA	3.57	–
CCCTGGGCTACGGCCTGCAGT	0.653	0.733
CCCTGGTGAACCGCATCGAGC	1.46	1.66
CCCTGTCCAACCTCTGTGCCC	1.39	–
CCCTGTCCTCCAGGTGAAAGG	–	1.77
CCCTTAGAAATTCTAGCCTGG	–	2.4
CCCTTCAATTACCCATATCCC	1.32	–
CCCTTGCACCAAATGTGAACA	–	0.926
CCCTTGTGTTTGGAATTATAA	–	1.02
CCGAAAATGTTCAATAATGTC	–	1.02
CCGAAGGCTACGTCCAGGAGC	0.975	1.4
CCGACAACCACTACCTGAGCT	1.94	1.93
CCGACAAGCAGAAGAACGGCA	0.799	0.691
CCGACCACATGAAGCAGCACG	1.83	2.46
CCGACCACTACCAGCAGAACA	2.31	1.66
CCGAGAGTCTACCAGCCAGAT	2.59	–
